Measurements: PMC4336329 (PLoS ONE, 2015)
In all, about 310,000 compounds went through this assay and about 2,200 (0.71%) showed an effect of 50% or more. The effect is printed as a negative number. This is one part of the list.

Target: human ether-à-go-go-related gene (hERG) potassium channel (human, UniProt Q12809)
Assay: primary screen, population patch clamp on CHO cells stably expressing hERG

Sequence of human ether-à-go-go-related gene (hERG) potassium channel (Q12809 whole entry, looked up): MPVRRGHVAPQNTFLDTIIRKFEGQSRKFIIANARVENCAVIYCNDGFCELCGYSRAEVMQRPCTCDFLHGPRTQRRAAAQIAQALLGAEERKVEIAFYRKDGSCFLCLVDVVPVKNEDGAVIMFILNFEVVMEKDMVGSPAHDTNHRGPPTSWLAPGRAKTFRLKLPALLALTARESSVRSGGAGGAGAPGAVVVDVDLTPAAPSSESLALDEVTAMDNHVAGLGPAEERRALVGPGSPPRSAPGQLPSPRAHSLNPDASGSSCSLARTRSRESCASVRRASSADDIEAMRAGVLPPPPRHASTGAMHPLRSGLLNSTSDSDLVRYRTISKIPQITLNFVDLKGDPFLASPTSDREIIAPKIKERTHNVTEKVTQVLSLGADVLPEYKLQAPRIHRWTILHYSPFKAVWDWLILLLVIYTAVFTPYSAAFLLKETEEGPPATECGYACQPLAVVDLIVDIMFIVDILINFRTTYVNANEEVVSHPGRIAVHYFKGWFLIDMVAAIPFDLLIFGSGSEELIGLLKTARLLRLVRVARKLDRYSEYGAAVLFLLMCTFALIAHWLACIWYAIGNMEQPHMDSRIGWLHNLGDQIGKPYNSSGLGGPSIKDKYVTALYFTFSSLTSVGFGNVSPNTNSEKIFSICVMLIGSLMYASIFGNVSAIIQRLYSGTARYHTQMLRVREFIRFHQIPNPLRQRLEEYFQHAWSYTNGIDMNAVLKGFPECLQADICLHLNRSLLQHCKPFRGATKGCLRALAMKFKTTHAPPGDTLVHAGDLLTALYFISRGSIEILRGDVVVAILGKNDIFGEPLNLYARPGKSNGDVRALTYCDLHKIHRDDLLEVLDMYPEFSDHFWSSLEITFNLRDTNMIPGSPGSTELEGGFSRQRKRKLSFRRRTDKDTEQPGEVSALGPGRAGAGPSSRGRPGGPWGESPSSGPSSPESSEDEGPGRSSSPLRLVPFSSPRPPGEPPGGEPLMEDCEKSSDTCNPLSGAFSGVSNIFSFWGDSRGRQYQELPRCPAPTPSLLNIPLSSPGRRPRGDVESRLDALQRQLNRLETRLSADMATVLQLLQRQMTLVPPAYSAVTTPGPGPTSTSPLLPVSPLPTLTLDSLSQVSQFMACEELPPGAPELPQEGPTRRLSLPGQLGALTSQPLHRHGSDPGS

| SMILES | hERG current change (%, negative = inhibition) at 1uM [%] |
| --- | --- |
| O=C1NCCCc2nonc21 | 9.73 |
| COC(=O)c1sc(NC(=O)c2c(OC)cccc2OC)c(C#N)c1C | 11 |
| O=C(Cc1cccs1)N1CCN=C1SCc1ccccc1Cl | 3.66 |
| O=C(CN1C(=O)c2ccccc2C1=O)Oc1ccc(F)cc1 | 9.1 |
| COC(=O)Cc1c(C)c2ccc(OCc3nn[nH]n3)c(C)c2oc1=O | 6.9 |
| Cc1cccc(OCC(=O)NCc2n[nH]c(=O)c3ccccc23)c1 | 0.313 |
| COc1ccc(-c2cc(C(=O)NC(C(=O)O)C(C)C)c(C)o2)cc1OC (centres unmarked) | 8.32 |
| COc1ccc(C(=O)Nc2ccnn2C2CCN(C(=O)c3cnsn3)CC2)cc1 | -8.17 |
| Fc1cccc(CN2CCN(c3nc4nonc4nc3NC3CC3)CC2)c1 | 11.7 |
| CCN1CCC[C@H]1CNC(=O)c1c(OC)ccc(Br)c1OC.Cl | -0.0431 |
| CCc1nnc(NC(=O)CSc2nnc(Cc3ccccc3)o2)s1 | 16.5 |
| CC1(C)NC(C)(C)c2nonc2/C1=N\O | 10.6 |
| CCCCCCC(C)n1cc(C(C)=O)c(=O)[nH]c1=O (centres unmarked) | 3.04 |
| CC(C)c1ccc(OCC(=O)Nc2ccccc2C(=O)N2CCOCC2)cc1 | 9.09 |
| CC1=NNC(=O)C1Cc1ccccc1 (centres unmarked) | 10.1 |
| CC(C)C(=O)Nc1sc2c(c1-c1nc3ccccc3[nH]1)CCCC2 | 2.86 |
| COc1ccc(C(=O)O/N=C(\C)c2nccs2)cc1 | 5.08 |
| CCCCN1CC(=O)N2[C@H]3c4cc(Cl)ccc4OC[C@@H]3[C@H](C(=O)OCC)[C@]2(C)C1=O | 17.5 |
| O=S(=O)(CC12C3C4C5C1C2C(Br)(C43)C51OCCO1)c1ccccc1 (centres unmarked) | 5.1 |
| CN1CCN(C(=S)SCC(=O)N2CCCc3ccccc32)CC1 | 9.45 |
| Cc1ccc(C(=O)NN2C(=O)C3C(C2=O)C2C=CC3C23CC3)cc1 (centres unmarked) | 11.3 |
| CCCC(=O)Nc1ccc(-c2nc3cc(C)ccc3o2)cc1 | 8.33 |
| COc1ccc2oc(C(=O)CCC(=O)O)c(N)c2c1 | 10.2 |

| SMILES | hERG current change (%, negative = inhibition) at 1uM [%] |
| --- | --- |
| Cc1ccc(NC(=O)CC2SC(=Nc3ccc(O)cc3)NC2=O)cc1 (centres unmarked) | 15.6 |
| Brc1cccc(/C=N\n2cnnc2)c1 | 12.8 |
| Cc1ccccc1CS(=O)(=O)c1snnc1C | 8.71 |
| CCOC(=O)C1=C(C)Nc2ccccc2N=C1NC(=O)c1oc2ccccc2c1COC | -5.4 |
| COc1ccccc1CNC(=O)c1c(O)c2cc(OC)c(OC)cc2[nH]c1=O | 11 |
| CC(=O)N1CCc2c(sc(NC(=O)c3cccc(N4C(=O)CCC4=O)c3)c2C(N)=O)C1 | 10.5 |
| O=C(c1cc(N2CCOCC2)c(F)cc1[N+](=O)[O-])N1CCOCC1 | 12.6 |
| COc1ccc(Br)cc1C(=O)Nc1cccc(C)c1 | 8.3 |
| CC(C)(C)c1ccc(OCC(=O)N(c2ccccn2)C2CCCCC2)cc1 | -6.01 |
| O=C(CCCOC(=O)c1ccc(O)cc1O)c1ccccc1 | 4.12 |
| COc1ccc(/C=N/Nc2ncc(C(F)(F)F)cc2Cl)cc1OC | 22.2 |
| CC1CCC2(CC1)NC(=O)c1ccccc1O2 (centres unmarked) | 5.51 |
| CCc1ccccc1N(CC(=O)N1CCN(c2ccccc2)CC1)S(C)(=O)=O | 5.52 |
| Cc1ccc(CCNC(=O)c2cc(S(=O)(=O)N3CCCC3)cn2C)cc1 | 0.568 |
| Cc1ccc([N+](=O)[O-])cc1N/C=C/C(=O)c1ccco1 | 8.52 |
| COc1cc(/C=C(\C#N)C(=O)Nc2ccc(C(=O)O)cc2)ccc1OC(=O)c1cccc(F)c1 | 11.6 |
| Clc1ccc(Cc2nc(-c3ccncc3)no2)cc1 | 1.72 |
| CCN(CC)C(=O)c1cc(-c2ccccc2OC)on1 | -1.27 |
| CCc1cccc(CC)c1NC(=S)/C(=C(\[O-])c1ccc(Cl)s1)[n+]1ccccc1 | 4.02 |
| CCCN(CC(=O)Nc1ccccc1OC)C(=O)C1CCCC1 | 9.86 |
| O=C1COc2ccc(C(=O)CSc3nnc(-c4cccs4)n3Cc3ccccc3)cc2N1 | -3.8 |
| COc1ccc(-c2csc3nc(-c4ccccc4F)oc(=O)c23)cc1 | 11.3 |
| CC(=O)Nc1ccc2nc(-c3ccc(Br)o3)[nH]c2c1 | 16.2 |

| SMILES | hERG current change (%, negative = inhibition) at 1uM [%] |
| --- | --- |
| CC1c2cc3c(cc2CCN1S(=O)(=O)c1ccccc1)OCCCO3 (centres unmarked) | 8.28 |
| CC(=O)c1sc(NC(=O)c2cccc3ccccc23)nc1C | 10.2 |
| Cc1ccc(NC(=O)Nc2cc(Cl)ccc2C2COC(=O)C2=N)cc1 (centres unmarked) | 13.1 |
| Cc1nc(-c2ccc(S(=O)(=O)N3CCOCC3)cc2)cs1 | 12.1 |
| CCOC(=O)CSc1nnc(CNc2ccc(Cl)cc2)n1-c1ccccc1 | 5.58 |
| CCCCCCn1c(N2CCN(c3ccccc3)CC2)nc2c1c(=O)[nH]c(=O)n2C | -20.5 |
| Nc1ncnc(Sc2ccccc2)c1[N+](=O)[O-] | 7.4 |
| Cc1ccc(NS(=O)(=O)c2ccc3c(c2)NC(=O)C(C)C(=O)N3)cc1C (centres unmarked) | 9.26 |
| CCc1c(C(=O)Nc2ccc(OC)c(Cl)c2)[nH]c(C)c1C(C)=O | -1.95 |
| COC(=O)c1cccc(NC(=O)CSCc2ccccc2)c1 | 10.1 |
| COc1ccccc1NS(=O)(=O)c1ccc(NC(=O)c2ccncc2)cc1 | 2.55 |
| COc1cccc2cc3c(=O)oc4ccccc4c3nc12 | -1.32 |
| CCCNc1c(NS(=O)(=O)c2cccs2)c(=O)oc2ccccc12 | 4.34 |
| CCc1ccc(-c2cc(C)no2)cc1S(=O)(=O)N1CCN(c2ccccc2)CC1 | 5.22 |
| Cc1cc(NC(=O)CSc2ccnc(=O)[nH]2)no1 | -4.46 |
| COc1ccc(-c2nn3c(-c4ccccc4)nnc3s2)cc1 | 13 |
| CN1C(=O)C(O)(CC(=O)/C=C/c2ccco2)c2cc(Br)ccc21 (centres unmarked) | 0.482 |
| CCOc1cc(C=O)c(Br)cc1OC1CCCC1 | 11.4 |
| Cc1cccc(N2CC(C(=O)OCc3ccc([N+](=O)[O-])cc3)CC2=O)c1 (centres unmarked) | -16.8 |
| COc1ccc(N2C(=O)CCC(C(=O)N3CCOCC3)C2c2ccc(F)cc2)cc1 (centres unmarked) | 14.4 |
| Cc1cc(CNC(=O)CC2C(=O)NCCN2Cc2ccccc2)nn1C (centres unmarked) | 12 |
| COc1ccccc1N1CCN(Cc2cn[nH]c2-c2ccc(F)cc2)CC1 | -12 |
| CC(=O)N1CCN(C(=O)C(Cc2c[nH]c3ccccc23)NC(=O)c2ccccc2Cl)CC1 (centres unmarked) | 15.9 |

| SMILES | hERG current change (%, negative = inhibition) at 1uM [%] |
| --- | --- |
| COc1ccc(NC(=O)c2ccc3c(c2)NC(=O)CS3)cc1 | 16.6 |
| Nc1ccc(Oc2c(Cl)cccc2Cl)nc1 | 0.173 |
| COc1ccc(C)cc1S(=O)(=O)n1c([N+](=O)[O-])cnc1C | 13.5 |
| Cc1ccn2c(CN(C)CCn3nc(C)cc3C)c(C(=O)N3CCCCCC3)nc2c1 | 25.4 |
| CCCN1Cc2cccc(C(=O)NC(CC(=O)OCC)c3ccc(C)cc3)c2C1=O (centres unmarked) | 1.17 |
| CC(C)c1ccc(NC(=O)CCN2C(=O)[C@@H]3Cc4ccccc4CN3C2=O)cc1 | 12.5 |
| O=C(NC1CCCCCC1)C1CCN(C(=O)c2cccc(Cl)c2)CC1 | 8.77 |
| Cc1ccc(N(C(=O)C2CCCO2)C2C=CS(=O)(=O)C2)cc1Cl (centres unmarked) | -2.71 |
| COCCN(C(=O)CSc1nnc(-c2cccc(F)c2)n1N)c1c(N)n(Cc2ccccc2)c(=O)[nH]c1=O | 4.08 |
| C#CCOCCOCCOCCNc1nc(N2CCN(C(=O)C(CCC(=O)O)n3cc(C(N)CC(C)C)nn3)CC2)nc(N2CCN(C(=O)C(Cc3cc4ccccc4[nH]3)n3cc(C(N)Cc4ccc(O)cc4)nn3)CC2)n1.Cl (centres unmarked) | 3.03 |
| O=C(NC1CCCCC1)C(c1ccc(Cl)cc1)N(C(=O)c1ccccn1)c1cccnc1 (centres unmarked) | 22.6 |
| COc1cccc(OCC(=O)Nc2ccc(OC)c(OC)c2)c1 | 5.26 |
| COc1ccc(-c2ccc(CO)o2)cc1N | 15.8 |
| COc1ccccc1OCc1nc(C#N)c(N2CCC(C(N)=O)CC2)o1 | -11.8 |
| CCc1ccc2c(c1)C(c1ccc([N+](=O)[O-])cc1)=NNC(c1ccccc1)=N2 | 4.22 |
| COc1ccccc1C(=O)N/N=C(\C)CC(=O)Nc1ccc(Cl)cn1 | 4.38 |
| CSC1=NCCN1C(=O)c1ccc(C)cc1 | 6.89 |
| COc1ccc(N(C(=O)c2cccnc2)S(=O)(=O)c2cc(OC)ccc2OC)cc1 | 0.396 |
| CCN(CC(=O)Nc1c(F)cccc1F)C(=O)c1ccc(COc2ccccc2)cc1 | -1.13 |
| COc1ccc([C@H]2CC(=O)C=C(c3cc(F)ccc3OC)C2)cc1 | 11.8 |
